Among the data in PubChem BioAssay AID1918953 (Molecular Pharmacology Branch, DTP, NCI, 2023) are viability, T/C and IC50 values, retold here.

The subject of this experiment is MDA-MB-231 complex spheroid viability. Kind of experiment: Anticancer human tumor MDA-MB-231/ATCC cell line growth inhibition.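 As to all read-outs here: drug exposure lasted 7 days starting on day 3 of spheroid growth.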 The note with it: for viability, T/C: stronger effect = lower value; for IC50: compound alone. The source says:
Multicellular complex tumor spheroid response to LSD1 Inhibitor Iadademstat in combination with a variety of drugs and investigational agents in selected tumor cell lines
The current study was undertaken to assess response to LSD1 inhibitors in combination with standard-of-care drugs and investigational agents in solid tumor complex spheroid models as well as in the K-562 leukemia. Complex spheroids include a stromal component modeled by human endothelial cells (HUVEC) and fibroblasts modeled by human mesenchymal stem cells (MSCs). The concentration ranges selected for each drug and investigational agent were based upon clinically achievable concentrations if the clinical Cmax of the agent was known.
Compounds. The drugs and investigational agents used in this study are listed on Table 1. All of the agents used, including staurosporine (NSC755774) and gemcitabine (NSC613327), were obtained from the Developmental Therapeutics Program, NCI. FDA-approved anticancer drugs are available from the NCI at http://dtp.nci.nih.gov/branches/dscb/oncology_drugset_explanation.html. Drugs and investigational agents were >95% pure by proton nuclear magnetic resonance (NMR) and liquid chromatography/mass spectrometry (LC/MS). Stock solutions were prepared at 400x in DMSO, stored at -70 degrees C, and diluted in fresh medium prior to their use. The final concentration of DMSO in cell culture wells never exceeded 0.25% (v/v). The FDA-approved anticancer drug set is available from the Developmental Therapeutics Program at https://dtp.cancer.gov/organization/dscb/obtaining/available_plates.htm. All drugs and investigational agents were tested over a range starting from a high concentration at or near the clinical Cmax and decreasing in half-log increments. If the clinical Cmax for an agent had not been determined, the highest concentration tested was 10 microM.
Cell Lines. The patient-derived cancer cell (PDC) lines: 292921-168-R-J2-PDC, K24384-001-R-PDC, and 521955-158-R2-J5-PDC pancreatic carcinomas, 556581-035-R-J1 ovarian carcinoma, 324938-238-R-J1-PDC, 855422-203-R-J1-PDC and 883617-216-R-J1-PDC urothelial bladder carcinomas, 743489-274-T-PDC renal cell carcinoma, 138582-R-J1 Merkel cell tumor, K60290-347-R-J1 and K57222-313-R-J1-PDC glioblastomas, 653999-131-R-J2-PDC, LG0703-F948-PDC, and 349418-098-R-PDC non-small cell lung carcinomas, 885512-296-R-J2-PDC, 171881-019-R-J1-PDC breast carcinomas and 186277-243-T-J2-PDC and 233499-124-R-J2-PDC colon carcinomas were obtained from the NCI Patient-Derived Models Repository (PDMR, https://pdmr.cancer.gov). The established cell lines NCI/ADR-RES (RRID:CVCL_14520 and OVCAR-5 (RRID:CVCL_1628) ovarian carcinomas, 786-O (RRID:CVCL_1051) and A498 (RRID:CVCL_A498) renal cell carcinoma, NCI-H211 (ATCC, cat. CRL-5824; RRID:CVCL_1529), NCI-H196 (ATCC, cat. CRL-5823, RRID:CVCL_1509), SW 1271 (ATCC, cat. CRL-2177, RRID:CVCL_1716) and NCI-H1876 (ATCC, cat. CRL-5902, RRID:CVCL_1503) small cell lung carcinomas, MDA-MB-231 (RRID:CVCL_0062) and MDA-MB-468 (RRID:CVCL_0419)breast carcinomas (10-12). Pooled donor human umbilical vein endothelial cells (HUVEC, Lonza, cat. CC-2519) and human mesenchymal stem cells (hMSC, Lonza, cat. PT-2501) were purchased from Lonza (Walkersville, MD).
Cell Culture. All cells were maintained in an incubator at 37 degrees C and 5% CO2 with 95% humidity. The PDC lines were cultured according to standard operating procedures established by the NCI PDMR (https://pdmr.cancer.gov). Briefly all PDCs were thawed and cultured in Matrigel-coated flasks prepared with a working solution of 1X Ham's F-12 nutrient mix, without supplementation (Invitrogen, Waltham, MA, cat. 11765054), 100 U/mL penicillin-streptomycin (Invitrogen, cat. 15140122), and 2.5% Matrigel (Corning Inc., Corning, NY, cat. 354248) for the first three passages. […]

Certain results were filed several times, with different values. They are shown here; other results are not. There may be further records. The records of an entry repeat one measurement (runs, samples, wells, individuals or studies). Marks such as [2022-09] give the month of the run.

As to `O=C(C=Cc1cccc(S(=O)(=O)Nc2ccccc2)c1)NO`, the viability, T/C (compound alone 3 µM) is 0.72% [2022-01] and 88.2% [2022-02].
As to `NC1CCC(NC2CC2c2ccccc2)CC1` (configuration not stated), where the note is “compound alone 3.16 µM”, the viability, T/C is listed as 87.1, 86.5, 86.3, 85.5, 79.7, 84.2, 81.8, 80.9, 83, 91.6, 74.2, 76.7, 80.2, 83.5, 84.7, 65, 75.6, 77.5, 92.9, 89.9, 83.4, 75.9, 72.8, 89.5, 88.1%.
Consider `CC(C)CC(NC(=O)C(Cc1ccccc1)NC(=O)c1cnccn1)B(O)O` (configuration not stated), for which, under “compound alone 0.001 µM”, the viability, T/C was 54.1% [2022-01] and 0.34% [2022-02].
In the case of `NC1CC1c1ccc(-c2cccc(O)c2)cc1` (configuration not stated), the 50% inhibitory concentration (IC50) (drug combinations, run of 02/01/2022) is reported as > 10 µM, 8.31 µM, 9.79 µM, 7.59 µM, 6.71 µM, 9.99 µM, 5.95 µM, 3.5 µM, 4.67 µM, 8.8 µM, 7.22 µM, 8.63 µM, 5.82 µM, 6.26 µM.
Regarding `CC1COCCN1c1cc(-c2ccnn2C)c2ccnc(-c3ccn[nH]3)c2n1` (configuration not stated), the IC50 is 36.7 nM [2022-01] and < 3.16 nM [2022-02].
On to `CC1(C)CCC(CN2CCN(c3ccc(C(=O)NS(=O)(=O)c4ccc(NCC5CCOCC5)c([N+](=O)[O-])c4)c(Oc4cnc5[nH]ccc5c4)c3)CC2)=C(c2ccc(Cl)cc2)C1`, for which the viability, T/C (compound alone 10 µM) was 33.9% [2022-01] and 1.78% [2022-02].
Consider `CCN(c1cc(-c2ccc(CN3CCOCC3)cc2)cc(C(=O)NCc2c(C)cc(C)[nH]c2=O)c1C)C1CCOCC1`, for which the IC50 was > 3 µM [2022-01] and 191 nM [2022-02].

The viability, T/C is the result in the treated group divided by that in the control group, in per cent. In general, IC50 refers to the point on the concentration scale where inhibition reaches its midpoint.
